Data on two molecules can be found in US20220363757A1.

Experiment [1] concerns the target cynomolgus LAG-3 on transiently transfected CHO-S cells (cynomolgus). Briefly: flow cytometry on transfected CHO-S cells. Background: A flow cytometer gives signals particle by particle.
For experiment [2], the target named is cynomolgus LAG-3 ECD human IgG1 Fc fusion (cynomolgus; human), P18627. The experiment is described as follows: SPR, Fab over captured LAG-3 ECD-Fc.

A word on the EC50: it is the concentration giving half of the maximal effect. A word on the Kd: it is the equilibrium constant for the complex coming apart. What is called koff is a measure of how fast the partners let go of each other. The low end stands for a long-lived complex, the high end for a short-lived complex. For orientation: kon means a measure of how fast the partners come together. Read a high kon as fast association.

cynomolgus LAG-3 ECD human IgG1 Fc fusion (cynomolgus; human), P18627, sequence (P18627 other isoform, or with tags, fused parts or gaps, form in doubt): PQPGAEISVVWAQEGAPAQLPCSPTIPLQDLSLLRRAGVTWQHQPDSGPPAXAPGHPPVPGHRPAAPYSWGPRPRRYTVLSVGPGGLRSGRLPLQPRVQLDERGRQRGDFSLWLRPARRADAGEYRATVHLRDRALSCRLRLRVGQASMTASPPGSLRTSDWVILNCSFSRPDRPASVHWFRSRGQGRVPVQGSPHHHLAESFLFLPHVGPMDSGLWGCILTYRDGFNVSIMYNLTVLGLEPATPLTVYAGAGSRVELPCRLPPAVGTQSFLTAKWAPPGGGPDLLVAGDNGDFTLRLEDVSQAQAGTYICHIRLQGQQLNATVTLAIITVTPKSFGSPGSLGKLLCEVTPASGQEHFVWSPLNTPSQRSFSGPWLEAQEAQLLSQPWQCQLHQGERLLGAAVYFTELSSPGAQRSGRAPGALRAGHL

B1: antibody 15572 (antibody, human IgG1, kappa)
heavy: QLQLQESGPGLVKPSETLSLTCTVSGDSISSSSYYWGWIRQPPGKGLEWIGSIFYSGNTYYNPSLKSRVTISVDTSKNQFSLKLSSVTAADTAVYYCAREDDFLTDYYGAFDIWGQGTMVTVSSASTKGPSVFPLAPSSKSTSGGTAALGCLVKDYFPEPVTVSWNSGALTSGVHTFPAVLQSSGLYSLSSVVTVPSSSLGTQTYICNVNHKPSNTKVDKRV[human IgG1 Fc with changes not shown]
light: [about 100 residues not shown][about 120 residues not shown]
With B1, in experiment [1], the EC50 was 0.06 nM. This counts as picomolar.

B2: Fab fragment of antibody 15572 (Fab, not shown: a dimerising Fc or GST)
heavy: QLQLQESGPGLVKPSETLSLTCTVSGDSISSSSYYWGWIRQPPGKGLEWIGSIFYSGNTYYNPSLKSRVTISVDTSKNQFSLKLSSVTAADTAVYYCAREDDFLTDYYGAFDIWGQGTMVTVSS
light: [about 100 residues not shown][about 120 residues not shown]
In experiment [2], B2 came in with a Kd of 100 nM, a koff of 0.004 s⁻¹ and a kon of 40000 M⁻¹ s⁻¹.
